# Values joined by “and” are separate entries in the source; they are usually repeats but may differ in a detail not shown here. Equal values may be shown once. This list was built around the results that the source calls inconclusive (neither active nor inactive); the mix of calls is not that of the screen. A potency beside an inconclusive call is a rough fit, not a confirmed value. Active and inactive are the calls of the source. Calls follow the shape of the dose curve; as a rule, active = well fitted curve in the direction sought with a large enough effect; inconclusive = small, poorly fitted or top-dose-only effect, or another doubt; inactive = no such curve, though single readings can be large; an effect the other way counts as inactive or inconclusive.
# How the values were obtained:
# [1] = qHTS of pediatric cancer cell lines to identify multiple opportunities for drug repurposing: Primary screen for Rh30 cells (AID 1347107); conditions: Rh30 rhabdomyosarcoma viability, CellTiter-Glo luminescence, 48 h; series mostly up to 46 µM; also: nearly all actives have a fitted effect of over 75% in size; as to activity change, negative = cytotoxic: % is scaled to controls: 0 for no effect and ±100 for the full control effect
# In short: (§1)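 Cells (500-1,000/well) in growth media were settled 5 h at 37 degrees C, then given compounds for 48 h. Viability was read as CellTiter-Glo luminescence. Primary runs used MIPE at 11 points (0.78 nM-46 µM) and NPC at 8 points (0.59 nM-46 µM); follow-ups used 11 points.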
# [2] = qHTS of pediatric cancer cell lines to identify multiple opportunities for drug repurposing: Confirmatory screen for NB1643 cells (AID 1347109); conditions: NB1643 neuroblastoma cell viability; activity change, negative = cytotoxic: at 45.9 µM (top of the series); also: nearly all actives have a fitted effect of over 45% in size;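 as to activity change, negative = cytotoxic: plate controls were DMSO for no effect and bortezomib for full effect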
# In short: as §1
# [3] = qHTS of pediatric cancer cell lines to identify multiple opportunities for drug repurposing: Confirmatory screen for SK-N-MC cells (AID 1347111); conditions: SK-N-MC cell viability; series mostly up to 45.9 µM;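 also: cells exposed to compound for 48 h before the readout; nearly all actives have a fitted effect of over 70% in size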
# In short: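 Metabolically active cells were quantified by ATP-dependent luminescence (CellTiter-Glo, 15 min at room temperature) following 48 h treatment. Cells had been plated at 500-1,000 per well and settled for 5 h beforehand.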
# [4] = qHTS of pediatric cancer cell lines to identify multiple opportunities for drug repurposing: Confirmatory screen for BT-12 cells (AID 1347112); conditions: BT-12 rhabdoid tumor cells, viability; series mostly up to 45.9 µM; also: nearly all actives have a fitted effect of over 55% in size; as to activity change, negative = cytotoxic: % is scaled to controls: 0 for no effect and ±100 for the full control effect
# In short: as §1
# [5] = qHTS of pediatric cancer cell lines to identify multiple opportunities for drug repurposing: Confirmatory screen for LAN-5 cells (AID 1347113); conditions: LAN-5 neuroblastoma cell viability; series mostly up to 45.9 µM; also: nearly all actives have a fitted effect of over 65% in size
# In short: as §1
# [6] = qHTS of pediatric cancer cell lines to identify multiple opportunities for drug repurposing: Confirmatory screen for NB-EBc1 cells (AID 1347115); conditions: NB-EBc1 neuroblastoma cells, viability (cytotoxicity); series mostly up to 45.9 µM;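 also: cells exposed to compound for 48 h before the viability read; nearly all actives have a fitted effect of over 45% in size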; as to activity change, negative = cytotoxic: % is scaled to controls: 0 for no effect and ±100 for the full control effect
# In short: as §1
# [7] = qHTS of pediatric cancer cell lines to identify multiple opportunities for drug repurposing: Confirmatory screen for SJ-GBM2 cells (AID 1347116); conditions: SJ-GBM2 glioblastoma cells, viability; series mostly up to 45.9 µM; also: nearly all actives have a fitted effect of over 60% in size;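 as to activity change, negative = cytotoxic: plate controls were DMSO for no effect and bortezomib for full effect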
# In short: (§2)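 Viability measured as metabolically active cells via CellTiter-Glo luminescence following 48 hours of compound exposure, 11-point dilutions in confirmatory testing. 500-1,000 cells/well plated 5 hours before dosing; controls were DMSO and 2.3 µM bortezomib.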
# [8] = qHTS of pediatric cancer cell lines to identify multiple opportunities for drug repurposing: Primary screen for Rh41 cells (AID 1347108); conditions: Rh41 rhabdomyosarcoma viability, CellTiter-Glo luminescence, 48 h; series mostly up to 46 µM; also: nearly all actives have a fitted effect of over 70% in size
# In short: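 Cells seeded at 500-1,000 cells/well in growth media, rested 5 hours at 37 degrees C, 5% CO2, then dosed; MIPE compounds at 11-point (from 0.78 nM) and NPC at 8-point (from 0.59 nM) final concentrations. Viability by CellTiter-Glo luminescence after 48 hours.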
# [9] = qHTS of pediatric cancer cell lines to identify multiple opportunities for drug repurposing: Confirmatory screen for DAOY cells (AID 1347114); conditions: DAOY medulloblastoma cells viability, cytotoxicity qHTS; series mostly up to 45.9 µM; also: nearly all actives have a fitted effect of over 65% in size; as to activity change, negative = cytotoxic: % is scaled to controls: 0 for no effect and ±100 for the full control effect
# In short: as §2
# [10] = qHTS of pediatric cancer cell lines to identify multiple opportunities for drug repurposing: Confirmatory screen for A673 cells (AID 1347110); conditions: A673 Ewing sarcoma cell viability; series mostly up to 45.9 µM;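 also: cells exposed to compound for 48 h before the viability read; nearly all actives have a fitted effect of over 65% in size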
# In short: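 A673 cells seeded at 500-1,000 cells/well, rested 5 h, then dosed; primary MIPE 11-point (0.78 nM to 46 µM), NPC (0.59 nM to 46 µM); confirmatory 11-point. CellTiter-Glo luminescence after 48 h.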
# Potency is read from the fitted curve at half-maximal effect; tags tell the direction and shape of the fitted curve.
structure (smiles),measurement,setting,value
CN(Cc1cnc2nc(N)nc(N)c2n1)c1ccc(C(=O)N[C@@H](CCC(=O)O)C(=O)O)cc1,Potency,[1],inactive
same,Potency,[2],"inconclusive: 0.208 µM [cytotoxic, full curve, poor fit]"
same,Potency,[3],active: 0.0369 µM
same,Potency,[4],"inconclusive: 0.0329 µM [cytotoxic, full curve]"
same,Potency,[5],inactive
same,Potency,[6],"inconclusive: 0.117 µM [cytotoxic, full curve]"
same,Potency,[7],"inconclusive: 0.0657 µM [cytotoxic, full curve]"
CC(=O)[C@]1(O)Cc2c(O)c3c(c(O)c2[C@@H](O[C@H]2C[C@H](N)[C@@H](O)[C@H](C)O2)C1)C(=O)c1ccccc1C3=O,Potency,[1],active: 4.69 µM
same,Potency,[8],active: 0.935 µM
same,Potency,[2],"inconclusive: 0.165 µM [cytotoxic, full curve]"
same,Potency,[7],active: 0.369 µM
CCOC(=O)[C@H](CCc1ccccc1)N[C@H]1CS[C@H](c2cccs2)CN(CC(=O)O)C1=O,Potency,[1],"inconclusive: 5.9 µM [cytotoxic, full curve]"
same,Potency,[2],inactive
same,Potency,[5],inactive
same,Potency,[6],inactive
C[C@@]12C(=O)OC(=O)[C@]1(C)C1CCC2O1,Potency,[1],"inconclusive: 2.66 µM [cytotoxic, full curve]"
same,Potency,[6],active: 5.22 µM
same,Potency,[7],active: 8.27 µM
CCCCCCC[N+](CC)(CC)CCCCc1ccc(Cl)cc1,Potency,[1],"inconclusive: 10.6 µM [cytotoxic, partial curve]"
same,Potency,[8],active: 15 µM
same,Potency,[9],inactive
same,Potency,[6],"inconclusive: 20.8 µM [cytotoxic, partial curve, poor fit]"
same,Potency,[7],"inconclusive: 11.7 µM [cytotoxic, single point]"
Oc1c(Cl)cc(Cl)c2cccnc12,Potency,[1],"inconclusive: 26.6 µM [cytotoxic, single point] and inconclusive: 23.5 µM [cytotoxic, partial curve]"
same,Potency,[8],"inconclusive: 18.8 µM [cytotoxic, partial curve] and active: 23.5 µM"
same,Potency,[4],"inconclusive: 36.9 µM [cytotoxic, single point]"
same,Potency,[9],"inconclusive: 9.27 µM [cytotoxic, partial curve]"
same,Potency,[6],active: 18.5 µM
same,Potency,[7],"inconclusive: 13.1 µM [cytotoxic, partial curve, poor fit]"
C[C@@H](Oc1cc(-c2cnn(C3CCNCC3)c2)cnc1N)c1c(Cl)ccc(F)c1Cl,Potency,[1],active: 18.7 µM
same,Potency,[8],active: 18.7 µM
same,Potency,[4],"inconclusive: 26.1 µM [cytotoxic, single point]"
same,Potency,[9],"inconclusive: 9.27 µM [cytotoxic, full curve, poor fit]"
same,Potency,[6],active: 16.5 µM
same,Potency,[7],"inconclusive: 11.7 µM [cytotoxic, partial curve, poor fit]"
COc1cc(C=C2CCC/C(=C\c3ccc(O)c(OC)c3)C2=O)ccc1O,Potency,[1],"inconclusive: 23.7 µM [cytotoxic, single point]"
same,Potency,[8],"inconclusive: 33.5 µM [cytotoxic, single point]"
same,Potency,[4],active: 18.5 µM
same,Potency,[5],active: 5.85 µM
NC(N)=NN=C(/C=C/c1ccc([N+](=O)[O-])o1)/C=C/c1ccc([N+](=O)[O-])o1,Potency,[1],active: 3.35 µM
same,Potency,[8],active: 1.19 µM
same,Potency,[10],active: 2.61 µM
same,Potency,[3],"inconclusive: 1.04 µM [cytotoxic, full curve, poor fit]"
same,Potency,[6],"inconclusive: 1.31 µM [cytotoxic, full curve, poor fit]"
CCC(C)(C)C(=O)O[C@H]1C[C@@H](C)C=C2C=C[C@H](C)[C@H](CC[C@@H]3C[C@@H](O)CC(=O)O3)[C@H]21,Potency,[1],"inconclusive: 11.9 µM [cytotoxic, partial curve, poor fit] and inconclusive: 16.6 µM [cytotoxic, partial curve]"
same,Potency,[2],"inconclusive: 26.1 µM [cytotoxic, single point]"
same,Potency,[3],"inconclusive: 26.1 µM [cytotoxic, single point]"
same,Potency,[4],inactive
same,Potency,[9],active: 5.85 µM
same,Potency,[6],inactive
same,Potency,[7],"inconclusive: 14.7 µM [cytotoxic, partial curve]"
CN(C)C(=S)SC(=S)N(C)C,Potency,[1],"inconclusive: 1.33 µM [cytotoxic, partial curve]"
same,Potency,[2],active: 9.27 µM
same,Potency,[4],active: 4.65 µM
same,Potency,[5],active: 3.69 µM
same,Potency,[9],inactive
same,Potency,[6],"inconclusive: 7.37 µM [cytotoxic, full curve]"
same,Potency,[7],inactive
CC(C)CN(C[C@H](O)[C@H](Cc1ccccc1)NC(=O)O[C@H]1CCOC1)S(=O)(=O)c1ccc(N)cc1,Potency,[1],"inconclusive: 5.9 µM [cytotoxic, partial curve, poor fit]"
same,Potency,[8],"inconclusive: 20.9 µM [cytotoxic, single point]"
same,Potency,[10],"inconclusive: 36.9 µM [cytotoxic, single point]"
same,Potency,[3],"inconclusive: 11.7 µM [cytotoxic, partial curve, poor fit]"
same,Potency,[6],"inconclusive: 20.8 µM [cytotoxic, partial curve, poor fit]"
CS(=O)(=O)c1ccc(C(=O)Nc2ccc(Cl)c(-c3ccccn3)c2)c(Cl)c1,Potency,[8],"inconclusive: 20.9 µM [cytotoxic, partial curve]"
same,Potency,[2],"inconclusive: 14.7 µM [cytotoxic, partial curve]"
same,Potency,[3],"inconclusive: 14.7 µM [cytotoxic, partial curve, poor fit]"
same,Potency,[6],inactive
same,Potency,[7],inactive
CN(C)/N=N/c1nc[nH]c1C(N)=O,Potency,[8],"inconclusive: 15 µM [cytotoxic, partial curve, poor fit]"
same,Potency,[2],"inconclusive: 0.0033 µM [rising, full curve, poor fit]"
same,Potency,[10],inactive
same,Potency,[4],inactive
same,Potency,[5],"inconclusive: 0.131 µM [rising, full curve]"
same,Potency,[6],active: 18.5 µM
same,Potency,[7],"inconclusive: 0.131 µM [rising, full curve]"
CC(C)CN(C[C@@H](O)[C@H](Cc1ccccc1)NC(=O)O[C@H]1CO[C@H]2OCC[C@H]21)S(=O)(=O)c1ccc(N)cc1,Potency,[8],"inconclusive: 14.8 µM [cytotoxic, partial curve]"
same,"activity change, negative = cytotoxic",[2],inconclusive: -43.2% [cytotoxic]
same,Potency,[10],inactive
same,Potency,[3],"inconclusive: 32.9 µM [cytotoxic, single point]"
same,Potency,[5],"inconclusive: 36.9 µM [cytotoxic, single point]"
same,Potency,[9],inactive
same,Potency,[7],"inconclusive: 36.9 µM [cytotoxic, single point]"

# From PubChem BioAssay (NCATS)
